# The supplement of paper PMC8728848
# This is one part of the list.
# B1: HPAIIITrx (Helix pomatia), Q1KM18 (protein)
# chain: MLFVTIISLGLLAIVHGQCALKTIAFSAAIDREQTFDANQVVIYDIVITNHGNAYDNSTGLFTAPVDGMYSFQLNLLTIKEKEGWLELVHNGQLKVSVYAKQDSTYDSSSNSVIIKMKEGDRVNVRAHKKSGLFGRDDELYNTFSGHFLSGL
# Experiments:
# Experiment in all cases: glycan array binding signal (z-score within array); higher = stronger binding
# Settings in all cases: glycan notation: IUPAC condensed, linker removed
# [1] = target: Neu5Ac(a2-6)Gal(b1-4)GlcNAc(b1-2)Man(a1-6)[Man(a1-3)]Man(b1-4)GlcNAc(b1-4)GlcNAc
# How it was run: (§1)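 Glycan array binding is given as a within-array Z-score, which can be read as non-binding when negative. The arrays, 3228 of them, came from the Consortium for Functional Glycomics database and were retained only where the protein sequence was available. Z-scores were averaged across arrays of the same protein sequence at different concentrations or buffers and across linkers.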
# [2] = target: Neu5Ac(a2-6)Gal(b1-4)GlcNAc(b1-2)[Neu5Ac(a2-6)Gal(b1-4)GlcNAc(b1-4)]Man(a1-3)[GlcNAc(b1-4)][Neu5Ac(a2-6)Gal(b1-4)GlcNAc(b1-2)[Neu5Ac(a2-6)Gal(b1-4)GlcNAc(b1-6)]Man(a1-6)]Man(b1-4)GlcNAc(b1-4)GlcNAc
# How it was run: as §1
# [3] = target: Neu5Ac(a2-6)Gal(b1-4)GlcNAc(b1-2)[Neu5Ac(a2-6)Gal(b1-4)GlcNAc(b1-4)]Man(a1-3)[GlcNAc(b1-4)][Neu5Ac(a2-6)Gal(b1-4)GlcNAc(b1-4)Man(a1-6)]Man(b1-4)GlcNAc(b1-4)GlcNAc
# How it was run: as §1
# [4] = target: Neu5Ac(a2-6)Gal(b1-4)GlcNAc(b1-2)[Neu5Ac(a2-6)Gal(b1-4)GlcNAc(b1-6)]Man(a1-6)[Neu5Ac(a2-6)Gal(b1-4)GlcNAc(b1-2)Man(a1-3)][GlcNAc(b1-4)]Man(b1-4)GlcNAc(b1-4)GlcNAc
# How it was run: as §1
# [5] = target: Neu5Ac(a2-6)Gal(b1-4)GlcNAc(b1-3)Gal(b1-3)GlcNAc
# How it was run: as §1
# [6] = target: Neu5Ac(a2-6)Gal(b1-4)GlcNAc(b1-3)Gal(b1-4)GlcNAc
# How it was run: as §1
# [7] = target: Neu5Ac(a2-6)Gal(b1-4)GlcNAc(b1-3)Gal(b1-4)GlcNAc(b1-2)Man(a1-3)[Neu5Ac(a2-6)Gal(b1-4)GlcNAc(b1-3)Gal(b1-4)GlcNAc(b1-2)Man(a1-6)]GalNAc
# How it was run: as §1
# [8] = target: Neu5Ac(a2-6)Gal(b1-4)GlcNAc(b1-3)Gal(b1-4)GlcNAc(b1-3)Gal(b1-4)GlcNAc
# How it was run: as §1
# [9] = target: Neu5Ac(a2-6)Gal(b1-4)GlcNAc(b1-3)Gal(b1-4)GlcNAc(b1-3)Gal(b1-4)GlcNAc(b1-2)Man(a1-3)[Neu5Ac(a2-6)Gal(b1-4)GlcNAc(b1-3)Gal(b1-4)GlcNAc(b1-3)Gal(b1-4)GlcNAc(b1-2)Man(a1-6)]GalNAc
# How it was run: as §1
# [10] = target: Neu5Ac(a2-6)Gal(b1-4)GlcNAc(b1-3)Gal(b1-4)GlcNAc(b1-3)GalNAc
# How it was run: as §1
# [11] = target: Neu5Ac(a2-6)Gal(b1-4)GlcNAc(b1-3)Gal(b1-4)GlcNAc(b1-3)[Neu5Ac(a2-6)Gal(b1-4)GlcNAc(b1-3)Gal(b1-4)GlcNAc(b1-6)]GalNAc
# How it was run: as §1
# [12] = target: Neu5Ac(a2-6)Gal(b1-4)GlcNAc(b1-3)Gal(b1-4)GlcNAc(b1-6)[Gal(b1-3)]GalNAc
# How it was run: as §1
# [13] = target: Neu5Ac(a2-6)Gal(b1-4)GlcNAc(b1-3)Gal(b1-4)[Fuc(a1-3)]GlcNAc(b1-3)Gal(b1-4)[Fuc(a1-3)]GlcNAc
# How it was run: as §1
# [14] = target: Neu5Ac(a2-6)Gal(b1-4)GlcNAc(b1-3)GalNAc
# How it was run: as §1
# [15] = target: Neu5Ac(a2-6)Gal(b1-4)GlcNAc(b1-3)[Neu5Ac(a2-6)Gal(b1-4)GlcNAc(b1-6)]GalNAc
# How it was run: as §1
# [16] = target: Neu5Ac(a2-6)Gal(b1-4)GlcNAc(b1-6)GalNAc
# How it was run: as §1
# [17] = target: Neu5Ac(a2-6)Gal(b1-4)GlcNAc(b1-6)[Gal(b1-3)GlcNAc(b1-3)]Gal(b1-4)Glc
# How it was run: as §1
# [18] = target: Neu5Ac(a2-6)Gal(b1-4)GlcNAc(b1-6)[Gal(b1-3)]GalNAc
# How it was run: as §1
# [19] = target: Neu5Ac(a2-6)Gal(b1-4)GlcNAc6S
# How it was run: as §1
# Neu5Ac(a2-6)GalNAc = target: Neu5Ac(a2-6)GalNAc
# How it was run: as §1
# [20] = target: Neu5Ac(a2-6)GalNAc(b1-4)GlcNAc
# How it was run: as §1
# [21] = target: Neu5Ac(a2-6)GalNAc(b1-4)GlcNAc6S
# How it was run: as §1
# [22] = target: Neu5Ac(a2-6)GlcNAc(b1-4)GlcNAc
# How it was run: as §1
# [23] = target: Neu5Ac(a2-6)GlcNAc(b1-4)GlcNAc(b1-4)GlcNAc
# How it was run: as §1
# Neu5Ac(a2-8)Neu5Ac = target: Neu5Ac(a2-8)Neu5Ac
# How it was run: as §1
# [24] = target: Neu5Ac(a2-8)Neu5Ac(a2-3)Gal(b1-3)GalNAc(b1-4)[Neu5Ac(a2-3)]Gal(b1-4)Glc
# How it was run: as §1
# [25] = target: Neu5Ac(a2-8)Neu5Ac(a2-3)Gal(b1-3)GalNAc(b1-4)[Neu5Ac(a2-8)Neu5Ac(a2-3)]Gal(b1-4)Glc
# How it was run: as §1
# [26] = target: Neu5Ac(a2-8)Neu5Ac(a2-3)Gal(b1-4)Glc
# How it was run: as §1
# [27] = target: Neu5Ac(a2-8)Neu5Ac(a2-3)Gal(b1-4)GlcNAc
# How it was run: as §1
# [28] = target: Neu5Ac(a2-8)Neu5Ac(a2-3)[Gal(b1-3)GalNAc(b1-4)]Gal(b1-4)Glc
# How it was run: as §1
# [29] = target: Neu5Ac(a2-8)Neu5Ac(a2-3)[GalNAc(b1-4)]Gal(b1-4)Glc
# How it was run: as §1
# [30] = target: Neu5Ac(a2-8)Neu5Ac(a2-8)Neu5Ac
# How it was run: as §1
# [31] = target: Neu5Ac(a2-8)Neu5Ac(a2-8)Neu5Ac(a2-3)Gal(b1-4)Glc
# How it was run: as §1
# [32] = target: Neu5Ac(a2-8)Neu5Ac(a2-8)Neu5Ac(a2-3)[Gal(b1-3)GalNAc(b1-4)]Gal(b1-4)Glc
# How it was run: as §1
# [33] = target: Neu5Ac(a2-8)Neu5Ac(a2-8)Neu5Ac(a2-3)[GalNAc(b1-4)]Gal(b1-4)Glc
# How it was run: as §1
# [34] = target: Neu5Ac(a2-8)Neu5Ac(a2-8)Neu5Ac(a2-8)Neu5Ac(a2-3)[GalNAc(b1-4)]Gal(b1-4)Glc
# How it was run: as §1
# [35] = target: Neu5Ac(a2-8)Neu5Gc(a2-3)Gal(b1-4)GlcNAc
# How it was run: as §1
# [36] = target: Neu5Ac(b2-6)Gal(b1-4)GlcNAc
# How it was run: as §1
# Neu5Ac(b2-6)GalNAc = target: Neu5Ac(b2-6)GalNAc
# How it was run: as §1
# [37] = target: Neu5Ac9Ac(a2-3)Gal(b1-3)GlcNAc
# How it was run: as §1
# [38] = target: Neu5Ac9Ac(a2-3)Gal(b1-4)GlcNAc
# How it was run: as §1
# [39] = target: Neu5Ac9Ac(a2-6)Gal(b1-4)GlcNAc
# How it was run: as §1
# [40] = target: Neu5Gc(a2-3)Gal(b1-3)GlcNAc
# How it was run: as §1
# [41] = target: Neu5Gc(a2-3)Gal(b1-3)[Fuc(a1-4)]GlcNAc
# How it was run: as §1
# Neu5Gc(a2-3)Gal(b1-4)Glc = target: Neu5Gc(a2-3)Gal(b1-4)Glc
# How it was run: as §1
# [42] = target: Neu5Gc(a2-3)Gal(b1-4)GlcNAc
# How it was run: as §1
# [43] = target: Neu5Gc(a2-3)Gal(b1-4)GlcNAc(b1-3)Gal(b1-4)GlcNAc(b1-2)Man(a1-3)[Neu5Gc(a2-3)Gal(b1-4)GlcNAc(b1-3)Gal(b1-4)GlcNAc(b1-2)Man(a1-6)]Man(b1-4)GlcNAc(b1-4)GlcNAc
# How it was run: as §1
# [44] = target: Neu5Gc(a2-3)Gal(b1-4)[Fuc(a1-3)]GlcNAc
# How it was run: as §1
# [45] = target: Neu5Gc(a2-6)Gal(b1-4)GlcNAc
# How it was run: as §1
# Neu5Gc(a2-6)GalNAc = target: Neu5Gc(a2-6)GalNAc
# How it was run: as §1
# [46] = target: Neu5Gc(a2-8)Neu5Ac(a2-3)Gal(b1-4)GlcNAc
# How it was run: as §1
# [47] = target: Neu5Gc(a2-8)Neu5Gc(a2-3)Gal(b1-4)GlcNAc
# How it was run: as §1
# [48] = target: Neu5Gc(a2-8)Neu5Gc(a2-3)Gal(b1-4)GlcNAc(b1-3)Gal(b1-4)GlcNAc
# How it was run: as §1
# [49] = target: Neu5Gc(a2-8)Neu5Gc(a2-6)Gal(b1-4)GlcNAc
# How it was run: as §1
# [50] = target: Neu5Gc(b2-6)Gal(b1-4)GlcNAc
# How it was run: as §1
binder,measurement,setting,value
B1,glycan array binding signal (z-score),[1],-0.31
same,glycan array binding signal (z-score),[2],-0.455
same,glycan array binding signal (z-score),[3],-0.345
same,glycan array binding signal (z-score),[4],-0.416
same,glycan array binding signal (z-score),[5],-0.351
same,glycan array binding signal (z-score),[6],-0.395
same,glycan array binding signal (z-score),[7],-0.254
same,glycan array binding signal (z-score),[8],-0.514
same,glycan array binding signal (z-score),[9],1.22
same,glycan array binding signal (z-score),[10],-0.346
same,glycan array binding signal (z-score),[11],0.816
same,glycan array binding signal (z-score),[12],-0.292
same,glycan array binding signal (z-score),[13],-0.392
same,glycan array binding signal (z-score),[14],0.163
same,glycan array binding signal (z-score),[15],-0.408
same,glycan array binding signal (z-score),[16],0.573
same,glycan array binding signal (z-score),[17],-0.39
same,glycan array binding signal (z-score),[18],-0.3
same,glycan array binding signal (z-score),[19],-0.262
same,glycan array binding signal (z-score),Neu5Ac(a2-6)GalNAc,-0.361
same,glycan array binding signal (z-score),[20],-0.4
same,glycan array binding signal (z-score),[21],-0.278
same,glycan array binding signal (z-score),[22],-0.447
same,glycan array binding signal (z-score),[23],-0.323
same,glycan array binding signal (z-score),Neu5Ac(a2-8)Neu5Ac,-0.078
same,glycan array binding signal (z-score),[24],-0.396
same,glycan array binding signal (z-score),[25],-0.38
same,glycan array binding signal (z-score),[26],-0.321
same,glycan array binding signal (z-score),[27],-0.454
same,glycan array binding signal (z-score),[28],-0.374
same,glycan array binding signal (z-score),[29],-0.378
same,glycan array binding signal (z-score),[30],-0.315
same,glycan array binding signal (z-score),[31],-0.401
same,glycan array binding signal (z-score),[32],-0.263
same,glycan array binding signal (z-score),[33],-0.1
same,glycan array binding signal (z-score),[34],-0.251
same,glycan array binding signal (z-score),[35],-0.37
same,glycan array binding signal (z-score),[36],-0.507
same,glycan array binding signal (z-score),Neu5Ac(b2-6)GalNAc,-0.371
same,glycan array binding signal (z-score),[37],0.224
same,glycan array binding signal (z-score),[38],-0.301
same,glycan array binding signal (z-score),[39],-0.157
same,glycan array binding signal (z-score),[40],-0.347
same,glycan array binding signal (z-score),[41],-0.296
same,glycan array binding signal (z-score),Neu5Gc(a2-3)Gal(b1-4)Glc,-0.237
same,glycan array binding signal (z-score),[42],-0.502
same,glycan array binding signal (z-score),[43],-0.297
same,glycan array binding signal (z-score),[44],-0.214
same,glycan array binding signal (z-score),[45],-0.386
same,glycan array binding signal (z-score),Neu5Gc(a2-6)GalNAc,-0.327
same,glycan array binding signal (z-score),[46],-0.425
same,glycan array binding signal (z-score),[47],-0.459
same,glycan array binding signal (z-score),[48],-0.466
same,glycan array binding signal (z-score),[49],-0.356
same,glycan array binding signal (z-score),[50],-0.262
